# Experimental data taken from article PMC4336329 (PLoS ONE, 2015).
# Hit rate of the full screen: of about 310,000 compounds, about 2,200 (0.71%) showed an effect of 50% or more. The effect is printed as a negative number. This is one part of the list.
# Molecular target: human ether-à-go-go-related gene (hERG) potassium channel (human, UniProt Q12809)
# Assay: primary screen, population patch clamp on CHO cells stably expressing hERG
# human ether-à-go-go-related gene (hERG) potassium channel, sequence (Q12809 whole entry, looked up): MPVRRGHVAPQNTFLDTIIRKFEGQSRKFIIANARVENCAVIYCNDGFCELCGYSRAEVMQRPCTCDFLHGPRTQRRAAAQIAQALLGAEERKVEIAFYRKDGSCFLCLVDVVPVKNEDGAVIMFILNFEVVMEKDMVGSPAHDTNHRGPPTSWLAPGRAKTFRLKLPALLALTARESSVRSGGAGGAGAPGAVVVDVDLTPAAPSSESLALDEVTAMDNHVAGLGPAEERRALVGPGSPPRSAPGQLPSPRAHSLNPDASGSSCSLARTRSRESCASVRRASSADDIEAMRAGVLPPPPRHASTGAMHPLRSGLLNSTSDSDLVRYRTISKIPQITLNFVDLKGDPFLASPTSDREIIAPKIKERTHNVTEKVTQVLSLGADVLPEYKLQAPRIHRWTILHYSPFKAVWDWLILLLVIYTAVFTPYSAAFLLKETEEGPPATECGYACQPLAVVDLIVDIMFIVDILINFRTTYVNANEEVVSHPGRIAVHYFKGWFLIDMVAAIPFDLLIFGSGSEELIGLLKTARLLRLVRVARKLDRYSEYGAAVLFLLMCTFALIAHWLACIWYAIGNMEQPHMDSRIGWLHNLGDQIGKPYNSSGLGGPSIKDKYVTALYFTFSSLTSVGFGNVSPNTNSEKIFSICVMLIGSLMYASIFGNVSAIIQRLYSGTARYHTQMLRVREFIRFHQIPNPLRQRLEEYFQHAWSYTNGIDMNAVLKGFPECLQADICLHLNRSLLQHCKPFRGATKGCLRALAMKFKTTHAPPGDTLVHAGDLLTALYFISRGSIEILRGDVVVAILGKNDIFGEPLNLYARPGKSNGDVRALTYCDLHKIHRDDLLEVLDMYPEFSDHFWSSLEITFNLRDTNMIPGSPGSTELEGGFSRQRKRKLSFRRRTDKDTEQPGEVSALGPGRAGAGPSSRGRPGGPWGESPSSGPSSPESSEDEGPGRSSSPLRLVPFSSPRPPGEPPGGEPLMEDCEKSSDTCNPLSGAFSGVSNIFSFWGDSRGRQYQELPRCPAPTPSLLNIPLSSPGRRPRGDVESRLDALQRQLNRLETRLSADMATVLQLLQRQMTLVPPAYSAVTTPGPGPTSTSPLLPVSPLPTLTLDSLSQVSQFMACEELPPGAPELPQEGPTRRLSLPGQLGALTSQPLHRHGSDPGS
row,SMILES,"hERG current change (%, negative = inhibition) at 1uM [%]"
1,Cc1ccc2c(CC(=O)NCC3COc4ccccc4O3)coc2c1 (centres unmarked),3.48
2,Cc1cccc(-c2cnn(-c3cccc([N+](=O)[O-])c3)c2N)c1,7.27
3,Cc1ccc(-c2csc(NC(=O)COc3ccc(N(C)S(=O)(=O)c4ccc(C)cc4)cc3)n2)cc1,17.4
4,Nc1c(C(=O)c2ccccc2)sc(Nc2ccccc2)c1S(=O)(=O)c1ccccc1,-19.3
5,O=C(O)c1ccccc1CSc1ncccc1C(=O)O,19.4
6,CCC(C)NC(=O)CSc1nc2c(sc3ccccc32)c(=O)n1CCCN1CCOCC1 (centres unmarked),-3.27
7,Cc1ccc(C(c2sc3nc(C)nn3c2O)N2CCN(c3ccccc3)CC2)cc1 (centres unmarked),10.8
8,COc1ccc(C(O)c2nccc3cc(OC)c(OC)cc23)cc1OC (centres unmarked),6.46
9,Cc1ccc(C)c(N2CCN(C(=O)C3CCN(S(=O)(=O)c4c(C)noc4C)CC3)CC2)c1,7.93
10,O=S1(=O)C[C@@H](O)[C@@H](Nc2ccccc2)C1,16.7
11,CCOc1ncccc1C(=O)Nc1ccc(S(=O)(=O)N2CCCC2)cc1,10.2
12,O=C(c1cc2cc(Cl)ccc2[nH]1)N1CCN(c2ccccn2)CC1,1.42
13,Cc1cc(Cl)ccc1OCc1nc(-c2ccc(O)cc2)n[nH]1,8.42
14,O=C(CSc1nnc2scc(-c3ccc(Cl)cc3)n12)NCc1ccco1,1.75
15,Cc1cc(C)cc(OCC(=O)Nc2nc(-c3cccnc3)cs2)c1,4.54
16,O=C(CSCC(=O)Nc1nccs1)Nc1ccccc1,1.77
17,CCN(CC(=O)Nc1ccc(OC)c(OC)c1)S(=O)(=O)c1ccc(C)cc1,10.4
18,CCC(C(=O)NC1CCCCC1)n1c(SCc2ccc(F)cc2)nc2ccncc21 (centres unmarked),0.236
19,O=C(Cn1nnc2ccccc2c1=O)Nc1ccc2c(c1)CCC2,-7.26

row,SMILES,"hERG current change (%, negative = inhibition) at 1uM [%]"
1,COc1ccc(N2C(=O)CC(c3ccccc3)C2=O)cc1 (centres unmarked),16
2,COc1ccc(N2C(=O)C3C4c5ccccc5C(C=Nc5ccc(C)cc5C)(c5ccccc54)C3C2=O)cc1 (centres unmarked),11.6
3,COc1cccc(NC(=O)N2CCCC2C(=O)NC2CCCC2)c1 (centres unmarked),5.96
4,NS(=O)(=O)c1cccc(NC(=S)NC(=O)C23CC4CC(CC(C4)C2)C3)c1,17.2
5,CSc1ccc(S(=O)(=O)NCc2ccc(C)cc2)cc1,5.73
6,O=C(CCCOc1ccc(Cl)cc1)N1CCCCCC1,-0.946
7,COc1ccc(S(=O)(=O)N2CCOCC2)cc1NC(=O)CCCOc1ccc(Cl)cc1C,13.1
8,CCCCc1c(C)[nH]c2nc3ccccc3n2c1=O,8.48
9,CCNC(=O)NC(=O)C(C)Sc1nnc(COc2ccccc2Cl)o1 (centres unmarked),7.66
10,CCCN(CCC)C(=O)COc1cc(=O)n(CC)c2ccccc12,1.52
11,Cc1ccc(C(C)C)c(OCCCN(C)Cc2ccccc2)c1.O=C(O)C(=O)O,9.67
12,O=C1CCc2cc(S(=O)(=O)Nc3ccccc3)cc3c2N1CCC3,10.9
13,Cc1cccc(-c2noc(CN(C)C(=O)COc3ccccc3)n2)c1,5.61
14,Clc1ccc(OCCCn2cncn2)cc1Cl,2.79
15,CCOC(=O)C1CN(S(=O)(=O)c2ccc(OC)cc2)c2ccccc2O1 (centres unmarked),20.2
16,Cc1nnc(SCc2nc3ccccc3s2)n1-c1ccccc1,6.72
17,CC(C)C(NC(=O)C12CC3CC(CC(C3)C1)C2)C(=O)N/N=C/C1=C(N2CCOCC2)C(=C\c2ccc([N+](=O)[O-])cc2)/CC1 (centres unmarked),12.9
18,O=C(Cn1ccc2ccccc2c1=O)NCCC(=O)Nc1ccc(F)cc1F,8.02
19,CCOc1cc(CNC(C)C(O)c2ccccc2)cc(Cl)c1OCC.Cl (centres unmarked),16

row,SMILES,"hERG current change (%, negative = inhibition) at 1uM [%]"
1,Cn1nc(C(F)(F)F)c(C#N)c1N1CCN(c2ccc(F)cc2)CC1,-0.293
2,Cc1ccc(C(=O)C[n+]2cc(-c3ccccc3)n3c2CCCCC3)cc1.[Br-],10.3
3,CCn1c(=O)c2cc(C(=O)NCCN(C)C)sc2c2ccccc21,13.4
4,COc1ccc(S(=O)(=O)N2C(=O)/C(=C3\SC(N)=NC3=O)c3ccccc32)cc1,9.83
5,Cc1sc2ncnc(SCC(=O)Nc3ccc(CN4CCCC4)cc3)c2c1C,-18.3
6,CC1(C)CC(NC(=O)c2ccc(Cl)cc2)CC(C)(C)N1,14.5
7,COc1ccc(Nc2cc(C)nc3ncnn23)c(OC)c1,12.6
8,O=[N+]([O-])c1cccc(C2=NC(c3ccccc3)CO2)c1 (centres unmarked),5.27
9,Cc1cc(C)c(C2=NOC(O)(C(F)(F)F)C2)c(=O)[nH]1 (centres unmarked),6.55
10,Cc1onc(-c2ccccc2Cl)c1C(=O)Nc1cccc(S(=O)(=O)NC2=NCCC2)c1,0.0416
11,Cc1sc2nc(CSc3nc4ccccc4s3)[nH]c(=O)c2c1C,5.76
12,Cc1ccc2c(c1)=NC(=O)/C(=C/c1c(O)[nH]c(=O)[nH]c1=O)C=2,7.29
13,CCOC(=O)c1c(C)oc2ccc(OCC(=O)N(CC)CC)cc12,0.753
14,COc1cc(NC(=O)C2CC2C)c(C(=O)O)cc1OC (centres unmarked),7.09
15,COC(C/C=C\C(=O)COCc1ccccc1)OC,12.8
16,Cc1cc(C(F)F)n2ncc(C(=O)O)c2n1,0.0824
17,Cc1cc(=S)c2ccccc2[nH]1,20.8
18,Cc1ccccc1NC(=O)CN1C(=O)N/C(=C\c2ccc(N3CCOCC3)c(F)c2)C1=O,5.07
